For one experiment, the target named is T1, GFP-FERM-R312A/K313A (UniProt P34152).
T1 sequence: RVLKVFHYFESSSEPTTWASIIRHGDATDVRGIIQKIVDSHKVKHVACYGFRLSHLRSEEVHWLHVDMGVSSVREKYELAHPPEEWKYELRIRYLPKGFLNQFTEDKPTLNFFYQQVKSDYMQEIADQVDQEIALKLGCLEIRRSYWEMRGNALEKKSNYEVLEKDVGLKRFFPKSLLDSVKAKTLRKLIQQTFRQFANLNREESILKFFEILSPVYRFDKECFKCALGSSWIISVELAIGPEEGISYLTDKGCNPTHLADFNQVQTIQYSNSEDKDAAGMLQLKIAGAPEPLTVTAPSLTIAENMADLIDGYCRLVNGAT
The experiment is described as follows: co-IP; GFP-IP from B16F10 cells transfected for 24 h with GFP-FERM-WT, GFP-FERM-NLM or GFP-FERM-R312A/K313A; immunoblot for endogenous CDH1, CDK4 and CDK6.

Sequences of proteins named here, by UniProt entry; tags and fusion partners are left off.
UniProt Q64261: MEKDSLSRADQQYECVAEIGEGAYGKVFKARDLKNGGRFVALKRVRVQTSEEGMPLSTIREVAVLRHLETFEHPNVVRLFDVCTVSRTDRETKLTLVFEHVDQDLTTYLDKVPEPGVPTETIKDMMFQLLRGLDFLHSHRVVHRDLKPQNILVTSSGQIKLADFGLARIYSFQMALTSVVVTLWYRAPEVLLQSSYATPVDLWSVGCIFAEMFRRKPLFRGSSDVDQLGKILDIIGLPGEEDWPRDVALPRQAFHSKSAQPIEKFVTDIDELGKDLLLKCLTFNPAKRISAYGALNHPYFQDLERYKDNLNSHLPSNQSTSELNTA

In the next experiment the target is T2, GFP-FERM-WT (UniProt P34152).
T2 sequence: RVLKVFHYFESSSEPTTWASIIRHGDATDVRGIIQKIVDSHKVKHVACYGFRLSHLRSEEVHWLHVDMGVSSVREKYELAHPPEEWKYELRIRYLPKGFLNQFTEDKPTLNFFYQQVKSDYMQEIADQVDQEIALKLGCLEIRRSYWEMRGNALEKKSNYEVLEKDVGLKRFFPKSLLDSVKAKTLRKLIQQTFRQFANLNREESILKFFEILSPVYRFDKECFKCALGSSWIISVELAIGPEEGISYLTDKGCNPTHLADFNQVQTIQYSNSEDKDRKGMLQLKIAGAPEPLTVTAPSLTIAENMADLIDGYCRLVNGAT
Described as above.

In experiment [1] the target is Focal adhesion kinase (FAK) (mouse (endogenous in B16F10)) (UniProt P34152). The experiment in a line: condition: only vehicle-treated cells, without FAK inhibitor; co-IP; FAK-IP from lysates of vehicle-treated B16F10 cells (no FAK inhibitor), endogenous proteins; immunoblot.
Experiment [2] has the same target. The experiment is described as follows: co-IP; FAK-IP from B16F10 lysates, endogenous proteins; cells treated with FAK-I (PF-271, 2.5 uM) with or without MG-132 (10 uM) for 6 h; 1% Triton X-100, 50 mM Hepes, 150 mM NaCl buffer, overnight at 4 °C; immunoblot.
Experiment [3] addresses cyclin-dependent kinase 6 (CDK6) (mouse (endogenous in B16F10)) (UniProt Q64261). The experiment is described as follows: co-IP; B16F10 cells transduced with increasing MOI of Myc-FERM-WT or Myc-FERM-NLM adenovirus; CDH1-IP by the text (Myc-IP by the legend); immunoblot for CDH1, CDK4, CDK6 and Myc.
Experiment [4] addresses CDC homolog 1 (CDH1) (mouse (endogenous in B16F10)) (UniProt Q9R1K5). The description is as above.
In experiment [5] the target is T3, cyclin-dependent kinase 4 (CDK4) (mouse (endogenous in B16F10)) (UniProt P30285).
T3 sequence: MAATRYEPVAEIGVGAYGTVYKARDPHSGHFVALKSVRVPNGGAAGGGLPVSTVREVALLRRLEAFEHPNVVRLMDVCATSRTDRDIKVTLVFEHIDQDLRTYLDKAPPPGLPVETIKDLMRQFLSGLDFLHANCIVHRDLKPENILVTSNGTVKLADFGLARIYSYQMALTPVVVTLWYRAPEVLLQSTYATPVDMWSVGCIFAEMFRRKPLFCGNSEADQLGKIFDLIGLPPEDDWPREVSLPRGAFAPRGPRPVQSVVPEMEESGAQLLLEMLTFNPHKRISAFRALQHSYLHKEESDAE
The description is as above.

Results are given in words; binding and its absence hold for the method and conditions named. Binding seen in cells or lysates may run through a third protein. Some results given as binding are weak or reduced against the parent protein; the word gives no strength. For some of these results: Where a sequence is shown, tags or fusion partners need not be part of it.

B1: cyclin-dependent kinase 4 (CDK4) (protein, UniProt P30285 1-303)
chain: MAATRYEPVAEIGVGAYGTVYKARDPHSGHFVALKSVRVPNGGAAGGGLPVSTVREVALLRRLEAFEHPNVVRLMDVCATSRTDRDIKVTLVFEHIDQDLRTYLDKAPPPGLPVETIKDLMRQFLSGLDFLHANCIVHRDLKPENILVTSNGTVKLADFGLARIYSYQMALTPVVVTLWYRAPEVLLQSTYATPVDMWSVGCIFAEMFRRKPLFCGNSEADQLGKIFDLIGLPPEDDWPREVSLPRGAFAPRGPRPVQSVVPEMEESGAQLLLEMLTFNPHKRISAFRALQHSYLHKEESDAE
For B1, the binding entry with GFP-FERM-R312A/K313A is “binds”; in the experiment with GFP-FERM-WT it was “binds”; in experiment [1] it was “no binding”; in experiment [2], “binds”.

B2: Myc-FERM-WT (domain or fragment, UniProt P34152 35-355)
chain: RVLKVFHYFESSSEPTTWASIIRHGDATDVRGIIQKIVDSHKVKHVACYGFRLSHLRSEEVHWLHVDMGVSSVREKYELAHPPEEWKYELRIRYLPKGFLNQFTEDKPTLNFFYQQVKSDYMQEIADQVDQEIALKLGCLEIRRSYWEMRGNALEKKSNYEVLEKDVGLKRFFPKSLLDSVKAKTLRKLIQQTFRQFANLNREESILKFFEILSPVYRFDKECFKCALGSSWIISVELAIGPEEGISYLTDKGCNPTHLADFNQVQTIQYSNSEDKDRKGMLQLKIAGAPEPLTVTAPSLTIAENMADLIDGYCRLVNGAT
With B2, the binding entry in experiment [3], in experiment [4] and in experiment [5] was “binds” throughout.

These data come from paper PMC9163754.
